± gives the standard deviation of the averaged measurements. Over roughly 33,000 sequences, “E-score (dimensionless, -0.5 to 0.5)” has its median near -0.049; the highest 2% begin near 0.37. This is one part of the list.
Each sequence was assayed on T1, PmTbr T-box DNA-binding domain (GST fusion) (assay: PBM E-score of 8-mer (E-score (dimensionless, -0.5 to 0.5)); Tbr is Tbrain of the sea star Patiria miniata (Pm) or the sea urchin Strongylocentrotus purpuratus (Sp); higher = stronger binding preference; most listed sequences are background and not binding sites). Conditions: the construct has about 5 more residues each side.
T1 sequence: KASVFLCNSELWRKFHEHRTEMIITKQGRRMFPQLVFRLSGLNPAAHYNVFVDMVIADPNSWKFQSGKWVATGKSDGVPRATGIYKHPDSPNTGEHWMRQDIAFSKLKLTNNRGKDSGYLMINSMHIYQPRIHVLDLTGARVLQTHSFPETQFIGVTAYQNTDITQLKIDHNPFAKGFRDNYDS
Summary of the method: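 Universal Agilent oligonucleotide arrays, made double-stranded by primer extension, were incubated with 200 nM GST-fused Tbr T-box DNA-binding domain in PBS (pH 7.5). The protein was expressed in BL21 E. coli at 20 °C and purified by glutathione affinity chromatography. After scanning and quantification, the Universal PBM Analysis Suite assigned an enrichment E-score to each ungapped 8-mer, averaged over duplicate arrays.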

Sequence	PBM E-score of 8-mer
TACTAAAA	-0.025 ± 0.085
ACCCGTCT	0.00649 ± 0.036
AAATGTCA	0.111 ± 0.0049
GAGAGTGA	0.212 ± 0.033
CCGAACGA	-0.0621 ± 0.037
GGGAAACA	0.0209 ± 0.029
AATGTATG	-0.194 ± 0.021
ATTTTTTA	-0.175 ± 0.11
AGCCCGCG	-0.183 ± 0.056
TGTCGGAA	0.195 ± 0.027
GATCGCCA	0.127 ± 0.042
CATCCATG	-0.0998 ± 0.05
GACCGGAA	-0.129 ± 0.022
CAAACGAC	-0.00553 ± 0.072
AGGGCGAA	-0.0232 ± 0.096
AAAGCGTG	0.2812 ± 0.0023
CCTGAGGC	-0.0326 ± 0.054
CCAGCCCA	-0.295 ± 0.028
CGCTTTAC	-0.134 ± 0.0088
AACGGGGA	0.0221 ± 0.059
GCCAAGGA	-0.242 ± 0.0082
CGTGTTTA	0.0204 ± 0.033
CGCGGACA	0.0131 ± 0.015
GCCTGCGA	0.294 ± 0.0096
TCATCCAA	-0.0297 ± 0.06

Sequence	PBM E-score of 8-mer
AATGAACT	-0.231 ± 0.015
GCAATTGA	0.0291 ± 0.04
CTGTTAGC	0.291 ± 0.034
GCGGGAGA	-0.0237 ± 0.01
ACTAAATC	-0.134 ± 0.049
CACACGGC	0.0461 ± 0.026
CAGTATAG	-0.0221 ± 0.0096
AAAGATGA	-0.156 ± 0.008
AGATTGAG	0.0167 ± 0.036
GGAAGTGA	0.297 ± 0.0082
CAATCACC	0.205 ± 0.013
AAGATGAC	0.0813 ± 0.032
CGCGCGCC	0.153 ± 0.017
CAAAACGC	-0.1279 ± 0.00033
ACAGAGGC	0.0769 ± 0.02
ATAAGTAC	-0.184 ± 0.12
CCAAGGCG	0.202 ± 0.0084
ATTAAGGG	-0.168 ± 0.046
GACACCGC	0.307 ± 0.035
CCGCAGAC	-0.175 ± 0.012
CGTTTTTC	-0.0244 ± 0.059
AAGAAGGA	-0.0963 ± 0.055
TGAGTGCA	-0.197 ± 0.048
GAGTCAAC	0.0408 ± 0.02
AAGGATAT	-0.247 ± 0.025

Sequence	PBM E-score of 8-mer
ACACCGCA	0.183 ± 0.081
CCCGCAAG	-0.179 ± 0.0094
AATTAGGA	0.0147 ± 0.042
AATTTTTA	-0.104 ± 0.086
AACACCCG	0.428 ± 0.0098
ACACGTAC	0.332 ± 0.016
CAACGGTC	-0.0397 ± 0.046
AGAGGCGA	0.183 ± 0.043
AGAGGCAA	-0.0848 ± 0.022
ACCTTCTA	0.0294 ± 0.074
GCCCCATA	-0.0424 ± 0.084
GAGCAATC	-0.207 ± 0.01
GGAGGCCA	-0.305 ± 0.077
CCTACGCG	0.17 ± 0.013
AGTGCTCG	0.0353 ± 0.048
GCTAGGAA	-0.064 ± 0.027
CCAACAGA	-0.122 ± 0.055
CACCTACC	0.413 ± 0.015
CAGAAAAA	-0.206 ± 0.11
CATTCTAG	-0.158 ± 0.059
ATCTCGAG	-0.0269 ± 0.052
GGGCTAAA	-0.167 ± 0.021
AGCGGGGA	-0.0409 ± 0.022
CGGGTTTA	-0.0688 ± 0.02
ACACCGCT	0.203 ± 0.016

Sequence	PBM E-score of 8-mer
CTCGTGAC	0.19 ± 0.061
ACGACCAA	-0.151 ± 0.027
GGACCTAC	-0.167 ± 0.037
CACAGAGG	0.000915 ± 0.022
ACACTTCG	0.427 ± 0.0093
CCTGGCCG	0.0174 ± 0.0049
AAATTTCT	-0.0991 ± 0.11
CCTATGCA	-0.116 ± 0.038
AGGTAATG	-0.219 ± 0.025
GCTTGGAA	-0.256 ± 0.031
AATTTAAA	-0.0177 ± 0.17
GACCACGC	-0.0344 ± 0.04
CCACACGC	0.132 ± 0.032
TCTCGCCA	0.254 ± 0.022
CAAGTAAA	-0.012 ± 0.06
CGTTGTTC	-0.162 ± 0.0058
CGTGCTAC	0.185 ± 0.0064
ACCTGGTC	-0.0118 ± 0.057
CTGGTAGA	-0.123 ± 0.012
ACAATTTC	-0.0486 ± 0.02
CGGGGTAA	-0.0278 ± 0.04
CCATCCAA	-0.275 ± 0.032
CATTCGGA	-0.399 ± 0.054
ATCTGCCG	-0.163 ± 0.064
CTCTGTAA	0.00881 ± 0.032

Sequence	PBM E-score of 8-mer
GCTTCCGA	-0.242 ± 0.057
ATATGGTG	0.189 ± 0.0099
GACCAGTA	-0.339 ± 0.047
CCAACTTC	-0.0654 ± 0.06
GTGAATTA	0.1983 ± 0.00084
ACCCCCAG	-0.098 ± 0.0044
AGCTTCCA	-0.231 ± 0.0047
CTTAGAGC	-0.126 ± 0.083
ACAGAGGT	0.0917 ± 0.035
CGTTGAAC	-0.16 ± 0.006
GGGTGGTA	0.121 ± 0.07
AGCGATAA	0.108 ± 0.019
CGTAACAC	0.365 ± 0.011
ACAGGCCT	-0.272 ± 0.04
AGGACGTA	-0.142 ± 0.037
GGTCGGAA	0.0241 ± 0.014
AAAACAGG	0.0244 ± 0.055
CAGTCAAC	-0.00364 ± 0.076
ATGCACAG	-0.182 ± 0.025
AGACAACC	-0.14 ± 0.013
AATGTCAA	0.0345 ± 0.052
CAGTTTTC	0.0449 ± 0.02
AGCCTGAG	-0.196 ± 0.038
CATTAAGA	-0.221 ± 0.087
TATGCAGA	0.0147 ± 0.029

Sequence	PBM E-score of 8-mer
ACATAAAG	-0.00286 ± 0.12
AGCAGCCC	-0.2 ± 0.028
GGGCTCTA	-0.0697 ± 0.023
CCCATCGA	-0.171 ± 0.068
ACAGGTTC	0.127 ± 0.0093
CGATACCG	0.0117 ± 0.029
AAGTAGGA	-0.0354 ± 0.024
ACTTGCTA	0.266 ± 0.053
GTAAGTGA	0.264 ± 0.0097
CGATATGA	0.0653 ± 0.066
AATTGCTA	0.0917 ± 0.016
CTCCTCCC	-0.206 ± 0.033
ACCCCCGT	-0.0282 ± 0.12
CCTTACGC	0.151 ± 0.012
AATTACTA	-0.082 ± 0.044
CATATTAC	-0.0844 ± 0.0063
GCTGAAAC	-0.0556 ± 0.028
CATACTCC	-0.173 ± 0.044
AGTTGCTG	-0.00151 ± 0.072
AAGATACG	0.0813 ± 0.1
CGCATAAG	0.0338 ± 0.011
AATGCTGG	-0.209 ± 0.026
AGACTCGC	0.0603 ± 0.0075
ACGGGGCA	-0.145 ± 0.094
ATTCTGGG	-0.114 ± 0.027

Sequence	PBM E-score of 8-mer
CCCGCGGA	-0.0886 ± 0.065
AAACCAAG	-0.0652 ± 0.0092
ATGAGTCG	-0.169 ± 0.025
GACAGCTA	0.244 ± 0.02
ATACAGGC	0.0158 ± 0.034
CCTGCAAC	-0.0436 ± 0.095
ATTAAATA	-0.112 ± 0.032
AGATGTAC	-0.275 ± 0.024
ATTATCAG	-0.0355 ± 0.028
CGATGAGA	-0.0609 ± 0.078
AGGGTAAC	0.0462 ± 0.052
CCTATGTA	-0.24 ± 0.069
GTATAGAC	-0.145 ± 0.019
AGCAGGTA	-0.0669 ± 0.01
ACCAAGGC	-0.0484 ± 0.083
CGCAAACG	0.0243 ± 0.048
CAAACCGG	-0.0337 ± 0.00061
CGGCGCTA	0.239 ± 0.033
GCAGATGA	-0.155 ± 0.068
AGTGTCCG	0.183 ± 0.015
ATAGTCAC	0.205 ± 0.027
AGGATATC	-0.00124 ± 0.011

Source: the supplement of paper PMC4166925
